The whole screen tested about 390,000 compounds, of which about 930 (0.24%) were called active. Inconclusive results, whose numbers are uncertain, are shown with a selection of clear calls. Calls come from the whole dose curve; as a rule, active = well fitted activation curve with a large enough effect; inconclusive = small, poorly fitted or top-dose-only effect; inactive = no such curve, though single readings can be large or run the other way. A potency beside an inconclusive call is a rough fit, not a confirmed value.
Assay: qHTS for Suppressors of FUS Proteinopathy: Primary screen using FUS-linked yeast assay; note: nearly all actives have a fitted effect of over 55% in size
Conditions: S. cerevisiae FUS-expressing, OD600, 24 h; Potency: growth rescue; series mostly up to 76.6 µM
Method in brief: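 Absorbance at 600 nm, taken 24hr after compound addition, measured rescue of FUS-yeast growth at 30C. Induction used 2% galactose with seeding at OD 0.005. Controls: CP55940 from 92uM final, DMSO only.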
Potency is the fitted concentration of half-maximal effect; tags give direction and shape of the fitted curve.

Structure (SMILES)	Potency
O=C(CN1CCN(S(=O)(=O)/C=C/c2ccccc2)CC1)NC(=O)NCc1ccco1	inconclusive: 35.5 µM [activator, single point]
COc1ccccc1CNC(=O)c1sccc1-c1ccccc1	inconclusive: 14.1 µM [activator, partial curve]
Oc1c(Cl)cc(Cl)cc1/C=N/NC(=S)NC1CC2C=CC1C2 (stereo not given)	inactive
COc1ccc(NC(=O)C2CCN(S(=O)(=O)c3c(C)noc3/C=C/c3ccco3)CC2)cc1	inconclusive: 39.8 µM [activator, partial curve, poor fit]
Cc1ccc(C(=O)Nc2ccc(SC(F)F)cc2)s1	inactive
COc1ccccc1Nc1nc(C)cs1	inconclusive: 35.5 µM [activator, single point]
COc1ccc(NC(=O)c2cnc(SCC(=O)Nc3nc4ccc(C)cc4s3)n(C)c2=O)cc1	inactive
Cc1ccc(C(=O)C2CCN(CC(=O)NCc3cccs3)CC2)cc1	inactive
O=C(CNC(=S)N(Cc1ccc(F)cc1)C1CCCCC1)NC1CC1	inconclusive: 25.1 µM [activator, single point]
O=C(CN1C(=O)CSc2ccc(S(=O)(=O)N3CCCCC3)cc21)NCc1ccc(F)cc1Cl	inconclusive: 44.7 µM [activator, single point]
O=C(NCc1ccco1)c1ccc2c(c1)N(Cc1ccc(F)cc1)C(=O)c1ccccc1S2=O (stereo not given)	inactive
COC(=O)c1cc(Cl)cc2c(C)c(C3(O)CCCCC3)[nH]c12	inactive
Cc1cc(SCC(=O)c2ccc(O)c(O)c2)n2nc(C)c(-c3ccccc3)c2n1	inactive
Clc1cccc(N2CCN(c3nnnn3-c3ccccc3)CC2)c1	inconclusive: 50.1 µM [activator, single point]
COc1cccc(Cc2nc3ccccc3nc2SCC(=O)N2CCCCC2C)c1 (stereo not given)	inconclusive: 31.6 µM [activator, single point]
COC(=O)c1sc(N2C(=O)C(O)=C(C(=O)c3ccc(C)o3)C2c2ccco2)nc1C (stereo not given)	inconclusive: 35.5 µM [activator, single point]
CCN(C(=O)C1CCCN(c2nnc(-n3cccc3)s2)C1)c1ccccc1C (stereo not given)	inconclusive: 31.6 µM [activator, single point]
CC(C)(C)c1ccccc1NC(=O)Nc1nc(C(N)c2ccccc2)cs1 (stereo not given)	inconclusive: 35.5 µM [activator, single point]
Cc1ccc(S(=O)(=O)C2CCN(c3nc(-c4cccs4)nc4ccccc34)CC2)cc1	inactive
COc1cccc(N2CCN(C(=O)c3ccc(CS(=O)c4cccc(Cl)c4)o3)CC2)c1 (stereo not given)	inactive
O=C(C[n+]1ccccc1)Nc1ccccc1[N+](=O)[O-]	inactive
CCOc1cc(/C=C2\C(=O)ON=C2c2ccccc2)cc(Br)c1O	inconclusive: 44.7 µM [activator, single point]
NC(=O)c1cc([N+](=O)[O-])ccc1NCc1cccc2ccccc12	inactive

Structure (SMILES)	Potency
CCOc1cc2c(C#N)c(N3CCCCC3)nc(N)c2c(N)n1	inconclusive: 25.1 µM [activator, partial curve, poor fit]
COCCCNc1ccn2nc(-c3ccc(Cl)cc3)cc2n1	inactive
C/C(=N\Nc1nc2c(s1)CCCC2)c1ccccc1	inconclusive: 20 µM [activator, partial curve, poor fit]
CCc1ccccc1NC(=O)C1CCN(c2nn3c(=O)cc(C)nc3s2)CC1	inactive
C[C@]12CC[C@@H]3c4ccc(O)cc4CC[C@H]3[C@@H]1C[C@@H](O)[C@@H]2O	inactive
Cc1ccc(-n2nc(C(=O)N3CCN(c4ccccc4)CC3)c(=O)n(C)c2=O)cc1	inactive
CCC1CCc2sc(C(=O)NNC(=O)c3ccncc3)cc2C1 (stereo not given)	inconclusive: 25.1 µM [activator, partial curve, poor fit]
COC(=O)N1CCC[C@H]1c1cccc2[nH]cc(C)c12	inactive
Cc1cc(C)cc(Nc2ncc3c(n2)CC(c2ccco2)CC3=O)c1 (stereo not given)	inconclusive: 50.1 µM [activator, single point]
O=C(CSCc1cnn(-c2ccccc2)c1-n1cccc1)NCc1ccccc1F	inconclusive: 44.7 µM [activator, single point]
CCCSc1ccc([C@@H]2[C@@H]3C(=O)N(C)C(=O)[C@@H]3[C@]3(C(=O)OC)CCCN23)cc1OC	inconclusive: 31.6 µM [activator, single point]
COC(=O)c1cc(CSc2nc3ccccc3c(=O)n2C)oc1C	inactive
CCN1C(=O)[C@H]2[C@@H](c3ccc(-c4cccc(Cl)c4)c(OC)c3)N[C@@](C)(C(=O)OC)[C@H]2C1=O	inconclusive: 22.4 µM [activator, single point]
COc1ccccc1Nc1nc(N)nc(CSC(=S)N2CCC(C)CC2)n1	inconclusive: 31.6 µM [activator, single point]
CN(C)S(=O)(=O)c1ccc(-c2csc(N/N=C/c3ccco3)n2)cc1	inactive
N#C/C(=C(/O)COC(=O)c1ccc(O)cc1)c1nc2ccccc2[nH]1	inconclusive: 28.2 µM [activator, partial curve, poor fit]
O=C(Nc1cccs1)Nc1ccc(F)cc1F	inactive
O=C(O)Cn1c(-c2cccs2)cc2cc(Cl)ccc21	inactive
O=C(CCCCn1c(=O)[nH]c2ccccc2c1=O)N1CCN(c2cccc(C(F)(F)F)c2)CC1	inconclusive: 20 µM [activator, single point]
Cc1ccc(S(=O)(=O)N2CCC(=O)N([C@H](COCc3cccc(C)c3)C(C)C)CC2)cc1	inconclusive: 14.1 µM [activator, partial curve, poor fit]
CCOc1ccc([C@@H]2CC=C(C(=O)O)[C@H](c3ccc(F)cc3)N2S(=O)(=O)c2ccc(C)cc2)cc1	inconclusive: 28.2 µM [activator, single point]
Cc1ccccc1Cn1cnc2c(NS(C)(=O)=O)c(C)c(C)cc21	inconclusive: 2.82 µM [activator, full curve]

Source: PubChem BioAssay AID1347120 (National Center for Advancing Translational Sciences (NCATS), 2019)
